The target in one assay is T1, GST-SHLD3 (human, UniProt Q6ZNX1 1-250).
T1 sequence (looked up): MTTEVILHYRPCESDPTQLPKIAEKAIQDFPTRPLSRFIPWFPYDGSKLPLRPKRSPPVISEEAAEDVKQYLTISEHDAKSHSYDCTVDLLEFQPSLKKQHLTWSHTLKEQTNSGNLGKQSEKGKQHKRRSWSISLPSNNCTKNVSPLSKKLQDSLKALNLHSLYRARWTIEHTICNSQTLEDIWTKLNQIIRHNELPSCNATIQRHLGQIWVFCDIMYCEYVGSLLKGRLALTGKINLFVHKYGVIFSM
In words: pull-down.

Assay [1] has as its target T2, TRIP13 (purified, tags cleaved) (UniProt Q15645 1-432).
T2 sequence (looked up): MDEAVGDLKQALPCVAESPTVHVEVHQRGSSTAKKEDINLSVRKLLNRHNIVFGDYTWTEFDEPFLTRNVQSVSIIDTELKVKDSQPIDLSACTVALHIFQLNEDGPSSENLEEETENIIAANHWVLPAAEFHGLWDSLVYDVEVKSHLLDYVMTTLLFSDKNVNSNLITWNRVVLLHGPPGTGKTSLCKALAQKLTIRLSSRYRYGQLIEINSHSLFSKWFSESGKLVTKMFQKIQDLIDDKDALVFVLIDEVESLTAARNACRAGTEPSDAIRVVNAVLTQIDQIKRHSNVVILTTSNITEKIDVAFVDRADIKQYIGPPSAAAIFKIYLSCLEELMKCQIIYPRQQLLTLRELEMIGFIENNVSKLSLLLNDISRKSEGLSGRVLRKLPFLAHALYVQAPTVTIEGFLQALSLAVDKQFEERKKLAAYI
The assay is described as follows: pull-down.

The text below walks through data of article PMC7336368 (Nature cell biology, 2020).

B1: REV7^R124A (His-tagged, purified from E. coli) (natural protein)
chain: not shown
On to B1, for which the binding result (with GST-SHLD3; in assay [1]) was “binds” in each case.
